# What was measured:
# patients with MDD = assay: Phase 2a study in MDD, efficacy (MADRS, SDQ, CGI) and sub-analyses by BMI and chronicity; conditions: for SDQ effect size d: Day 14
# BDNF plasma levels = assay: Plasma BDNF in normal volunteers treated with dextromethadone; type: in vivo, human; conditions: for BDNF plasma levels: normal volunteers
# [1] = Study B, embryo fetal development in rats with toxicokinetic evaluation; conditions: female, Sprague-Dawley, rat, in vivo
# [2] = 25 mg, % life-years above 23%, N = 7
# [3] = 25 mg, % life-years from start of MDD 23% and below, N = 12
# [4] = 25 mg, BMI above median 28.6, N = 7
# [5] = 25 mg, BMI below median 28.6, N = 12
# [6] = 50 mg, % life-years 23% and below, N = 8
# [7] = 50 mg, % life-years above 23%, N = 13
# [8] = 50 mg, BMI above median 28.6, N = 11
# [9] = 50 mg, BMI below median 28.6, N = 10
# [10] = 25 + 50 mg, % life-years 23% and below, N = 20
# [11] = 25 + 50 mg, % life-years above 23%, N = 20
compound,measurement,setting,value
"CCC(=O)C(C[C@H](C)N(C)C)(c1ccccc1)c1ccccc1 [Dextromethadone, dextromethadone]",first appearance of improvement on MADRS,patients with MDD; 25 mg group,Day 2
same,MADRS change,"patients with MDD; 25 mg group, day 7",17.4
same,MADRS change,"patients with MDD; 25 mg group, day 14",16.8
same,MADRS mean CFB Day 7,patients with MDD; [2],−13.14
same,MADRS mean CFB Day 14,patients with MDD; [2],−11.4
same,MADRS mean CFB Day 7,patients with MDD; [3],−18.91
same,MADRS mean CFB Day 14,patients with MDD; [3],−18.54
same,MADRS CFB day 7,"patients with MDD; 25 mg, BMI NL, N = 4",21.75
same,MADRS CFB day 14,"patients with MDD; 25 mg, BMI NL, N = 4",15.6
same,MADRS CFB day 7,"patients with MDD; 25 mg, BMI OB, N = 3",8.6
same,MADRS CFB day 14,"patients with MDD; 25 mg, BMI OB, N = 3",7.6
same,MADRS CFB day 7,"patients with MDD; 25 mg, BMI OW, N = 12",16.91
same,MADRS CFB day 14,"patients with MDD; 25 mg, BMI OW, N = 12",17.8
same,MADRS CFB day 7,patients with MDD; [4],13.3
same,MADRS CFB day 14,patients with MDD; [4],13.4
same,MADRS CFB day 7,patients with MDD; [5],19.6
same,MADRS CFB day 14,patients with MDD; [5],17.6
same,SDQ effect size d,patients with MDD; 25 mg,0.9
same,MADRS mean CFB Day 7,patients with MDD; [6],−20
same,MADRS mean CFB Day 14,patients with MDD; [6],−21.5
same,MADRS mean CFB Day 7,patients with MDD; [7],−14.46
same,MADRS mean CFB Day 14,patients with MDD; [7],−15.9
same,MADRS CFB day 7,"patients with MDD; 50 mg, BMI NL, N = 6",19.5
same,MADRS CFB day 14,"patients with MDD; 50 mg, BMI NL, N = 6",24.75
same,MADRS CFB day 7,"patients with MDD; 50 mg, BMI OB, N = 8",15.7
same,MADRS CFB day 14,"patients with MDD; 50 mg, BMI OB, N = 8",21.1
same,MADRS CFB day 7,"patients with MDD; 50 mg, BMI OW, N = 7",15.3
same,MADRS CFB day 14,"patients with MDD; 50 mg, BMI OW, N = 7",12
same,MADRS CFB day 7,patients with MDD; [8],16.7
same,MADRS CFB day 14,patients with MDD; [8],20.8
same,MADRS CFB day 7,patients with MDD; [9],16.6
same,MADRS CFB day 14,patients with MDD; [9],15.4
same,SDQ effect size d,patients with MDD; 50 mg,1.1
same,persistence of efficacy after abrupt discontinuation,patients with MDD; 1-week treatment course,at least one week
same,MADRS mean CFB Day 7,patients with MDD; [10],−19.35
same,MADRS mean CFB Day 14,patients with MDD; [10],−19.78
same,MADRS mean CFB Day 7,patients with MDD; [11],−14
same,MADRS mean CFB Day 14,patients with MDD; [11],−14.4
same,MADRS effect size vs placebo,"patients with MDD; 25 and 50 mg, Day 4 to Day 14",0.7-1.0
same,first statistically significant improvement on MADRS,patients with MDD; both dose groups,day 4
same,magnitude of the response on MADRS,patients with MDD; placebo response −7.4,−17.8 points on MADRS
same,"remission of disease (MADRS score of 10 or less), patients","patients with MDD; within the first week of treatment, placebo 5%",over 30%
same,tested Asian subjects with increase in plasma BDNF,"BDNF plasma levels; N=2, compared to placebo",100%
same,BDNF plasma levels,BDNF plasma levels; 25 mg,strongly statistically increase in BDNF
same,BDNF plasma levels,BDNF plasma levels; 50 and 75 mg,but not in subjects treated with 50 and 75 mg
same,AUC(0-t),"[1]; oral, 40 mg/kg/day",9920 ng·h/mL
same,Cmax,"[1]; oral, 40 mg/kg/day",738 ng/mL
same,NOAEL,[1]; po,40 mg/kg/day

# From patent US20230017786A1, “DEXTR[…] A DISEASE-MODIFYING TREATMENT FOR NEUROPSYCHIATRIC DISORDERS AND DISEASES” (priority 2020, published 2023)
